Measurements from PubChem BioAssay AID1745853 (National Center for Advancing Translational Sciences (NCATS), 2022).
The list shows a part of the results. Shown are side measurements of this screen, not its main read-out; they come without a call.

How the values were obtained:
Test in all cases: Primary Screen for Target Class Profiling of Small Molecule Inhibitors of Methyltransferases
[1] = target: Glycine N-methyltransferase (Homo sapiens) (UniProt Q14749); conditions: purified enzyme, MTase-Glo SAH luminescence; measured here: GNMT inhibition; at 40 µM; stronger effect = lower value
Outline: (§1)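 Each enzyme was reacted with SAM and its substrate, with compounds tested once at 40 uM; SAH formed was read by MTase-Glo luminescence.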

[2] = target: Guanidinoacetate N-methyltransferase (Homo sapiens) (UniProt Q14353); conditions: purified enzyme, MTase-Glo SAH luminescence; measured here: GAMT inhibition; at 40 µM; stronger effect = lower value
Outline: as §1

[3] = target: Histamine N-methyltransferase (Homo sapiens) (UniProt P50135); conditions: purified enzyme, MTase-Glo SAH luminescence; measured here: HNMT inhibition; at 40 µM; stronger effect = lower value
Outline: as §1

[4] = target: Nicotinamide N-methyltransferase (Homo sapiens) (UniProt P40261); conditions: purified enzyme, MTase-Glo SAH luminescence; measured here: NNMT inhibition; at 40 µM; stronger effect = lower value
Outline: as §1

[5] = target: Phenylethanolamine N-methyltransferase (Homo sapiens) (UniProt P11086); conditions: purified enzyme, MTase-Glo SAH luminescence; measured here: PNMT inhibition; at 40 µM; stronger effect = lower value
Outline: as §1
% is set by controls: 0 for no effect and ±100 for the full control effect.

Compound: CN(C)C[C@H]1C[C@@H](CO)CN(C(=O)c2csc(Cc3ccccc3)n2)C1
- activity change, negative = inhibition [1]: -6.31%
- activity change, negative = inhibition [2]: -7.46%
- activity change, negative = inhibition [3]: -5.46%
- activity change, negative = inhibition [4]: -9.04%
- activity change, negative = inhibition [5]: -5.17%

Compound: COc1ccc(OC)c(CCNC(=O)CCc2nnc3n(CCCOC(C)C)c(=O)c4ccccc4n23)c1
- activity change, negative = inhibition [1]: -5.74%
- activity change, negative = inhibition [2]: 0.717%
- activity change, negative = inhibition [3]: -5.77%
- activity change, negative = inhibition [4]: 3.48%
- activity change, negative = inhibition [5]: 2.96%

Compound: COc1cccc(CC(=O)NCc2ccc(Cl)s2)c1
- activity change, negative = inhibition [1]: -2.9%
- activity change, negative = inhibition [2]: -4.43%
- activity change, negative = inhibition [3]: -1.04%
- activity change, negative = inhibition [4]: -10.5%
- activity change, negative = inhibition [5]: -4.94%

Compound: COc1ccc(Br)cc1[C@@H]1Nc2ccc(Cl)cc2[C@@H]2C=CC[C@@H]21
- activity change, negative = inhibition [1]: -8.41%
- activity change, negative = inhibition [2]: 0%
- activity change, negative = inhibition [3]: -10.3%
- activity change, negative = inhibition [4]: -2.14%
- activity change, negative = inhibition [5]: -6.22%

Compound: O=c1c2ccccc2n2c(-c3cc(Cl)ccc3O)nnc2n1Cc1ccccc1
- activity change, negative = inhibition [1]: -7.93%
- activity change, negative = inhibition [2]: 2.23%
- activity change, negative = inhibition [3]: -2.14%
- activity change, negative = inhibition [4]: -4.1%
- activity change, negative = inhibition [5]: -14.9%

Compound: CN(Cc1cccc(N2CCN(Cc3c(Cl)ccc(Cl)c3Cl)CC2)c1)[S+](C)(=O)[O-]
- activity change, negative = inhibition [1]: -3.95%
- activity change, negative = inhibition [2]: -0.767%
- activity change, negative = inhibition [3]: 3.27%
- activity change, negative = inhibition [4]: -0.784%
- activity change, negative = inhibition [5]: -4.91%

Compound: Cn1c(=O)n(C)c2cc(S(=O)(=O)N(Cc3ccccc3)C(=O)c3ccncc3)ccc21
- activity change, negative = inhibition [1]: 4.78%
- activity change, negative = inhibition [2]: 0.148%
- activity change, negative = inhibition [3]: 10.1%
- activity change, negative = inhibition [4]: 7.81%
- activity change, negative = inhibition [5]: 3.64%

Compound: CCNc1nccc(N2CCC(CC(=O)N3CCN(c4ccccc4F)CC3)CC2)n1
- activity change, negative = inhibition [1]: -7.41%
- activity change, negative = inhibition [2]: -0.469%
- activity change, negative = inhibition [3]: -65.8%
- activity change, negative = inhibition [4]: -19.2%
- activity change, negative = inhibition [5]: -7.07%

Compound: CCCN1C(=O)c2cc(C(=O)NCCc3ccc(SC)cc3)nn2CC1(C)C(=O)NC1CCCC1 (stereo unspecified)
- activity change, negative = inhibition [1]: 2.81%
- activity change, negative = inhibition [2]: 0%
- activity change, negative = inhibition [3]: -28%
- activity change, negative = inhibition [4]: 1.28%
- activity change, negative = inhibition [5]: 3.48%

Compound: CCC(C)n1ncn(-c2ccc(N3CCN(c4ccc(OCC5COC(Cn6cncn6)(c6ccc(Cl)cc6Cl)O5)cc4)CC3)cc2)c1=O (stereo unspecified)
- activity change, negative = inhibition [2]: -9.15%
- activity change, negative = inhibition [4]: -18.1%
- activity change, negative = inhibition [5]: -5.91%

Compound: C[C@@H]1O[C@@H](O[C@H]2[C@H](OC(=O)[C@]34CCC(C)(C)C[C@H]3C3=CCC5[C@@]6(C)C[C@@H](O)[C@@H](O[C@@H]7O[C@H](CO)[C@@H](O)[C@H](O)[C@H]7O)[C@@](C)(CO)C6[C@H](O)C[C@@]5(C)[C@]3(C)CC4)OC[C@H](O)[C@@H]2O)[C@H](O)[C@H](O[C@@H]2OC[C@](O)(CO)[C@H]2O)[C@H]1O[C@@H]1OC[C@@H](O)[C@H](O[C@H]2O[C@H](C)[C@@H](O)[C@H](O)[C@@H]2O)[C@H]1O (stereo partly specified)
- activity change, negative = inhibition [1]: 3.13%
- activity change, negative = inhibition [2]: 2.26%
- activity change, negative = inhibition [3]: 10.5%
- activity change, negative = inhibition [4]: -8.9%
- activity change, negative = inhibition [5]: 10.2%

Compound: CCNC(=O)CN1CCC(=O)N(Cc2ccc(F)cc2)C(C(C)C)C1 (stereo unspecified)
- activity change, negative = inhibition [1]: -2.58%
- activity change, negative = inhibition [2]: -1.93%
- activity change, negative = inhibition [3]: -0.732%
- activity change, negative = inhibition [4]: -10%
- activity change, negative = inhibition [5]: 8.64%

Compound: CCCCN1C(=O)c2cc(C(=O)NCCCc3ccccc3)nn2CC1(C)C(=O)NC1CCCC1 (stereo unspecified)
- activity change, negative = inhibition [1]: 2.9%
- activity change, negative = inhibition [2]: 0%
- activity change, negative = inhibition [3]: -0.826%
- activity change, negative = inhibition [4]: 3.69%
- activity change, negative = inhibition [5]: 3.63%

Compound: CCc1cc2c(cc3n2CC(C)(C(=O)NC2CCC(C)CC2)N(Cc2ccco2)C3=O)s1 (stereo unspecified)
- activity change, negative = inhibition [1]: -0.414%
- activity change, negative = inhibition [2]: 8.15%
- activity change, negative = inhibition [3]: 1.82%
- activity change, negative = inhibition [4]: -9.66%
- activity change, negative = inhibition [5]: -1.61%

Compound: O=C(c1cccn2cncc12)N1CCOCC1
- activity change, negative = inhibition [1]: -3.37%
- activity change, negative = inhibition [2]: 2.86%
- activity change, negative = inhibition [3]: 0.856%
- activity change, negative = inhibition [4]: 0.92%
- activity change, negative = inhibition [5]: -2%

Compound: CCCn1c(=O)c2ccc(C(=O)NC(C)C)cc2n2c(=O)n(Cc3ccc(C)cc3)nc12
- activity change, negative = inhibition [1]: 7.1%
- activity change, negative = inhibition [2]: 1.62%
- activity change, negative = inhibition [3]: 10.8%
- activity change, negative = inhibition [4]: 0.225%
- activity change, negative = inhibition [5]: 8.37%

Compound: CCC1Oc2ccc(Cl)cc2N(CC(=O)Nc2ccc3c(c2)C(=O)N(C)C2=NCCN23)C1=O (stereo unspecified)
- activity change, negative = inhibition [1]: -7.49%
- activity change, negative = inhibition [2]: -3.43%
- activity change, negative = inhibition [3]: -6.68%
- activity change, negative = inhibition [4]: -5.12%
- activity change, negative = inhibition [5]: -4.63%

Compound: CCOC(=O)c1cc2n(n1)CC(C)(C(=O)NCc1ccccc1)N(c1ccc(C)c(Cl)c1)C2=O (stereo unspecified)
- activity change, negative = inhibition [1]: 0.51%
- activity change, negative = inhibition [2]: 4.5%
- activity change, negative = inhibition [3]: 0.504%
- activity change, negative = inhibition [4]: -2.33%
- activity change, negative = inhibition [5]: -0.196%

Compound: CN(C)CCNC(=O)c1cccn2c(=O)c3cc4ccccc4cc3nc12
- activity change, negative = inhibition [2]: -0.836%
- activity change, negative = inhibition [4]: -5.58%
- activity change, negative = inhibition [5]: -66.9%

Compound: O=C(Nc1nn(Cc2ccccc2)c2cccc(N3CCOCC3)c12)C1CCC1
- activity change, negative = inhibition [1]: -3.65%
- activity change, negative = inhibition [2]: 0.069%
- activity change, negative = inhibition [3]: -0.101%
- activity change, negative = inhibition [4]: -6.22%
- activity change, negative = inhibition [5]: -3.6%

Compound: CCc1nc2c(c(-c3ccc(Cl)cc3)n1)CCN(Cc1ccnn1C)CC2
- activity change, negative = inhibition [1]: -4.83%
- activity change, negative = inhibition [2]: -6.52%
- activity change, negative = inhibition [3]: -3.63%
- activity change, negative = inhibition [4]: -12.4%
- activity change, negative = inhibition [5]: -8.4%

Compound: Cn1c(=O)c2ccc(C(=O)NC3CCCC3)cc2n2c(SCC(=O)Nc3ccccc3F)nnc12
- activity change, negative = inhibition [1]: -7.72%
- activity change, negative = inhibition [2]: 1.11%
- activity change, negative = inhibition [3]: 3.8%
- activity change, negative = inhibition [4]: -3.57%
- activity change, negative = inhibition [5]: 3.5%

Compound: COc1cccc(N2CCN(C(=O)CN(C)S(=O)(=O)c3ccc4[nH]c5c(c4c3)CCCC5)CC2)c1
- activity change, negative = inhibition [1]: 0.567%
- activity change, negative = inhibition [2]: 4.27%
- activity change, negative = inhibition [3]: 2.25%
- activity change, negative = inhibition [4]: -1.15%
- activity change, negative = inhibition [5]: 2.48%

Compound: CCCCCN(CCC12CC3CC(CC(C3)C1)C2)C(=O)NCCCc1ccncc1
- activity change, negative = inhibition [1]: 0.742%
- activity change, negative = inhibition [2]: -10.6%
- activity change, negative = inhibition [3]: 7.16%
- activity change, negative = inhibition [4]: -39.5%
- activity change, negative = inhibition [5]: -6.45%

Compound: O=C1c2cc3sccc3n2CC(C(=O)NC2CCCCCC2)(c2ccccc2)N1CCc1ccc(Cl)cc1 (stereo unspecified)
- activity change, negative = inhibition [1]: 2.82%
- activity change, negative = inhibition [2]: 4.21%
- activity change, negative = inhibition [3]: 1.5%
- activity change, negative = inhibition [4]: 3.06%
- activity change, negative = inhibition [5]: -1.37%

Compound: CCC1CCCCN1CCCNC(=O)CCn1ccc2cc(S(=O)(=O)N3CCCCC3)ccc21 (stereo unspecified)
- activity change, negative = inhibition [1]: -0.538%
- activity change, negative = inhibition [2]: 4.28%
- activity change, negative = inhibition [3]: -13.7%
- activity change, negative = inhibition [4]: -0.155%
- activity change, negative = inhibition [5]: 2.14%

Compound: Cn1c(=O)c2ccc(C(=O)NC3CCCC3)cc2n2c(=O)n(CC(=O)NCc3ccc(Cl)cc3)nc12
- activity change, negative = inhibition [1]: -0.12%
- activity change, negative = inhibition [2]: 0.565%
- activity change, negative = inhibition [3]: -3.32%
- activity change, negative = inhibition [4]: -1.4%
- activity change, negative = inhibition [5]: -3.21%

Compound: C[S+](=O)([O-])N1CCC2(CC1)C(=O)NN=C2c1ccccn1
- activity change, negative = inhibition [1]: -8.06%
- activity change, negative = inhibition [2]: -6.42%
- activity change, negative = inhibition [3]: -2.79%
- activity change, negative = inhibition [4]: -14.4%
- activity change, negative = inhibition [5]: -4.44%
